The source gives no read counts; variants with many changes may rest on few reads.

B1: LINE1-full (parent)
chain: UACGUAGGUGGUUUUCCCCUGAUAGUGCUAAGGGGGCCUGGAAGUUUGGACUGGGCAGAGCUCAACACAGCGUGGCAAAGUGGCUGUGGCUAGACUGCCUCUCUGGAUUCCUCGUCACUCAGCAGGGCAUCUCUGAGAGAAAUGCC

Variants of B1 are the subject of the data set. Put plainly: self-cleavage, relative activity (ratio to wild type); higher = more cleavage; in vitro, sequencing; the parent is a self-cleaving ribozyme.
As for A107G A141G U143A, the self-cleavage was determined as 1.96.

On to U62C G72A C99U C128U A129G, for which the self-cleavage was found to be 0.01.

With A22U U23C A79G A92G, the self-cleavage is 0.

Consider U14C A64U U119C, for which the self-cleavage was 0.7.

As for U13A U20A C103A U134C, the self-cleavage worked out at 1.05.

Take G54A U73A U108C U119A: the self-cleavage is 0.94.

U26C U47C A124U A142G: the self-cleavage turned out to be 1.71.

In the case of U12C A94G A124G, the self-cleavage came to 0.89.

Take U29C C63U U85A: the self-cleavage came out at 0.09.

As for G32A U45C U108C, the self-cleavage worked out at 0.42.

For U12C A59G A77G, the self-cleavage came to 0.2.

U39C C71U U73C U109C: the self-cleavage is 0.72.

As for U14C U39C A94G, the self-cleavage was 0.45.

Regarding G4A U9A A107G, the self-cleavage came out at 1.07.

As for G106U A117G U130C, the self-cleavage came to 1.29.

For the variant A65U A77U A94G A140G, the self-cleavage worked out at 0.

In the case of A50G U81A A141G, the self-cleavage was 1.1.

As for A50G U109C A124U, the self-cleavage stood at 0.92.

For A65G A142G U143C, the self-cleavage is 0.05.

U46G A50G U102C: the self-cleavage turned out to be 1.31.

For U20C G53U A92G A121G, the self-cleavage was 0.07.

With A6G A57G A67U A77G U85C, the self-cleavage came to 0.

For U20C U26C U39A A92U, the self-cleavage was 0.95.

In the case of U100A C116A U119C, the self-cleavage worked out at 0.84.

As to G53A U73C U91A A140G, the self-cleavage amounted to 0.44.

Turning to U73C U109A G122U, the self-cleavage amounted to 1.56.

Take G33U G35U A67C A94U U96A U143A: the self-cleavage amounted to 0.03.

For the variant A77U G86A A117U, the self-cleavage amounted to 0.03.

For the variant A22U A64G U132C, the self-cleavage stood at 0.27.

For U45C U46C G89A, the self-cleavage was determined as 0.07.

Consider U26G A31U C76U U96C, for which the self-cleavage was 0.29.

Consider A30G U96C U108A, for which the self-cleavage worked out at 0.4.

As for G34U A42G A92G, the self-cleavage was 0.07.

With G53A A67U A124G, the self-cleavage was 0.01.

For U85A U102C U134A, the self-cleavage stood at 0.04.

Turning to U14C A24U U81A U85C G114C, the self-cleavage came out at 0.27.

With U20A C38G A94U, the self-cleavage was 0.39.

With G7U A57U U73C G89A, the self-cleavage was 0.05.

For U23A G32A A43U A79G U115C, the self-cleavage came out at 1.65.

As for U12C A57U G86C U102C A117C, the self-cleavage is 0.18.

As to A43G A117G A124G, the self-cleavage was 0.46.

As for U100C G105A A124U, the self-cleavage worked out at 2.16.

With A67G C76U C84U, the self-cleavage was 0.06.

As for A30U U52C G89A A141G, the self-cleavage is 0.06.

Turning to U9A A22G A59G, the self-cleavage amounted to 0.62.

With U26A A50G U108C, the self-cleavage is 1.58.

Regarding G21A U119A A142G, the self-cleavage came to 1.07.

For U26G A67U A107U U119C C120A, the self-cleavage came to 0.16.

As for U45G U85G U96A G127C A129U, the self-cleavage amounted to 0.02.

With A2G U9C U29G, the self-cleavage turned out to be 0.

U12G U29C U108C: the self-cleavage stood at 1.53.

Consider G8A A65G U96C, for which the self-cleavage turned out to be 0.

Take G25A U52C G122A: the self-cleavage is 1.19.

Take A24G A57U U81C A142G: the self-cleavage amounted to 1.15.

As to U23A U26C G27A U87A, the self-cleavage is 0.03.

Regarding U112C U119A U134C, the self-cleavage was determined as 2.1.

Take U12C U14C U87A A142G: the self-cleavage worked out at 0.21.

Take U12G C28U U52G U96A U119C: the self-cleavage stood at 0.

Regarding U47C U100C U104A, the self-cleavage was found to be 0.93.

With A24G G27A U112C, the self-cleavage is 0.7.

For the variant A31U A43U U45C, the self-cleavage turned out to be 0.68.

As to G8C A94G C133A, the self-cleavage amounted to 0.

Consider G49A A69G A94G U104A A124U, for which the self-cleavage came to 0.

In the case of A43G A65G U96A, the self-cleavage is 0.08.

Take G34U A50G A67G: the self-cleavage worked out at 0.3.

Turning to A31G G55C U119C C123U, the self-cleavage came to 0.18.

Turning to A24G U39C A107U U115C, the self-cleavage amounted to 0.

As to A2G U52A A136G, the self-cleavage is 0.94.

Consider U5A A64G U100A, for which the self-cleavage was 0.28.

With U20A A77G U91C G126A, the self-cleavage was 1.34.

For U20C U91C C99U A129G, the self-cleavage turned out to be 0.11.

With U39C A57G U115A A129G, the self-cleavage was 0.61.

Consider U29C A77G A141G, for which the self-cleavage was found to be 2.58.

As for A77U A129U A140G, the self-cleavage was 0.79.

U73A U81A U91C U130C: the self-cleavage was found to be 1.

Take C19U A30G A77U U91C: the self-cleavage amounted to 0.91.

On to A64C A138G A140U, for which the self-cleavage came out at 0.26.

Take U20G U29C A57G A65G: the self-cleavage worked out at 1.53.

Take A22U A59G U108C U115C: the self-cleavage amounted to 0.4.

On to C38G A107G G137U, for which the self-cleavage was found to be 2.17.

In the case of G54A U62C A77U, the self-cleavage came to 0.02.

In the case of A30U A43G G75A U112C G135A, the self-cleavage is 0.35.

With G35U U81C U143A, the self-cleavage is 1.57.

Consider A94G A121U U130A, for which the self-cleavage stood at 0.13.

Turning to U15C A24G G35C U100C, the self-cleavage was 0.46.

G4A U14A C63U U132C A140G: the self-cleavage is 0.29.

With G7A U46C A50G U91A U109A, the self-cleavage came to 1.48.

Turning to U9C U62C A64U U87C U100C, the self-cleavage came to 0.2.

As to U45A C90U U115C U134C A140G, the self-cleavage turned out to be 0.01.

As for G34C U96C U108C, the self-cleavage was 0.

Take U15C U26C C95A: the self-cleavage worked out at 0.15.

U46C A67G C113A: the self-cleavage amounted to 0.35.

On to U46C A67U U134A A138U, for which the self-cleavage was 0.21.

As to A59G U87G C98G A107G, the self-cleavage was 0.35.

Regarding U9G U14C A50G U73A U85C, the self-cleavage was determined as 0.

For A42U G137U A138U, the self-cleavage was 0.96.

C19U U20A U85A: the self-cleavage turned out to be 0.05.

With A22G G32A U109A, the self-cleavage is 0.9.

Consider U12C U26A C128A, for which the self-cleavage is 0.44.

With U12C U52C G80A A117G, the self-cleavage worked out at 2.74.

Consider A50U A59G A77G, for which the self-cleavage stood at 0.08.

For the variant U46C G72A U87C U112C, the self-cleavage came to 0.16.

Consider A42G A79G U85A A124G, for which the self-cleavage was 0.2.

With U81C C103A A117U, the self-cleavage was 2.14.

In the case of U81C A141G A142G, the self-cleavage is 1.64.

On to U5A G35U A64G U130C, for which the self-cleavage stood at 0.14.

As for A69G C71A U112C, the self-cleavage stood at 0.08.

Regarding U62A U73C U87C A140G, the self-cleavage is 0.

U47C C90U U108C U143C: the self-cleavage is 0.07.

For A2G U47C A67U A92U A117U A140G U143A, the self-cleavage was 0.71.

With U12G A42U U134A, the self-cleavage is 0.38.

As to A24U U87G U96C U119C, the self-cleavage amounted to 0.

Consider A42U A67G U91C A121G, for which the self-cleavage is 0.

In the case of A65U U91C U115C, the self-cleavage came out at 0.08.

Take U23C U100C U130A: the self-cleavage was determined as 2.58.

Regarding U5C U47A A136G U143C, the self-cleavage worked out at 1.04.

G11A U15C C123U: the self-cleavage was 1.57.

Take A50C A141G U143C: the self-cleavage was found to be 0.53.

For G58U U62A U100C A117G U134C, the self-cleavage was found to be 0.05.

U26G U85A A129G: the self-cleavage is 0.12.

As to A22G U47A A129G, the self-cleavage is 1.18.

With U15C A59G G126A, the self-cleavage worked out at 0.21.

A22G A136U A140G: the self-cleavage is 1.25.

Turning to A65G U81C U112C U134A, the self-cleavage was determined as 0.

For the variant A2G A77U U87C C116U, the self-cleavage was found to be 0.1.

Consider U9C G33C A57U U112C U119C, for which the self-cleavage is 0.16.

With U15A A94G U130C, the self-cleavage amounted to 0.4.

With A30G A64U A129G A140G, the self-cleavage came out at 1.

As for A42G A50G U104A A107U, the self-cleavage is 0.57.

Consider A64U A77U A129U, for which the self-cleavage came to 0.43.

Turning to U62A A69G U102G, the self-cleavage stood at 0.51.

Turning to U12C U15C A42U A124U U143C, the self-cleavage is 0.66.

In the case of A65G U104C C145U, the self-cleavage was 0.

For G54U A57U A79G U104C A142G, the self-cleavage came out at 0.09.

As for U13C U47C U62C U81C A124U, the self-cleavage was 0.

Regarding U15C A69G A129U A141G, the self-cleavage stood at 0.3.

For the variant U14C C19G A30G, the self-cleavage turned out to be 0.57.

Turning to A57U U73A G137A, the self-cleavage was 0.05.

For the variant A24G U26C G34A G35A A57U A65G U81A U100C, the self-cleavage came out at 0.45.

With U5C G11A U12C U47A U73C G105A U115C G126A, the self-cleavage was 2.16.

Turning to U5C G80C U115A U119C, the self-cleavage worked out at 0.48.

A59U U100C A124G A141U: the self-cleavage was 2.16.

For U13C A69U A141G C145U, the self-cleavage was found to be 0.13.

Turning to G25A A42U A57G C63A A64G, the self-cleavage was 0.02.

As for A22G U26A U47C G83U U85C U134A, the self-cleavage was 0.35.

Regarding U46C A50U A79G, the self-cleavage was 1.77.

For the variant A31G A50G A107G, the self-cleavage was 0.92.

With A43G A57G U104A A117U U132A A140U, the self-cleavage amounted to 0.19.

For G35A A59C A94U U112G, the self-cleavage was 0.17.

For the variant G35A U46A U132A, the self-cleavage came out at 1.03.

For U5C U39C A57U U87A U109C, the self-cleavage stood at 0.2.

On to U9A U12C U14C G75U A78U A117U C145A, for which the self-cleavage was 1.46.

With U47A U62C U132C A138G, the self-cleavage is 0.

Regarding U9C A43U U47C A64U, the self-cleavage was 1.12.

For A2U A22U U26A C37U A43U A57C A77U U96C, the self-cleavage stood at 0.14.

As to U9C U39C A59G A69U U104A A141G, the self-cleavage is 0.

For the variant A22G A69U G93A A141G, the self-cleavage amounted to 0.07.

With U14C A30G U62C, the self-cleavage was 0.

Turning to A64U A77G U102A, the self-cleavage stood at 0.57.

Turning to G88A G97A U119A A121U, the self-cleavage turned out to be 0.05.

In the case of U15A A79G A124U, the self-cleavage is 1.39.

Take G34C G74U U85C U96C A141G: the self-cleavage is 0.06.

Take A31G A142U C146U: the self-cleavage came to 1.45.

In the case of U26C U115A G137A, the self-cleavage is 2.45.

Turning to U15C U20A G35A C51U A59G U62C A124G, the self-cleavage came out at 0.13.

Turning to U14C C19U U52G, the self-cleavage is 0.86.

On to U13C U87C U112C, for which the self-cleavage was 0.57.
